Measured values published in ChEMBL document CHEMBL4888484, “Replenishing the malaria drug discovery pipeline: Screening and hit evaluation of the MMV Hit Generation Library 1 (HGL1) against asexual blood stage Plasmodium falciparum ,using a nano luciferase reporter read-out” (2022).
Out of some 150,000 compounds screened, about 540 (0.36%) showed an effect of 50% or more. This is one part of the list.

Tested on: Plasmodium falciparum
Experiment: Primary screen in NF54 nanoGlo assay, in single point, at 2uM, 72h; a lower Z score goes with more inhibition
Type: functional, Erythrocyte
Conditions: timepoint 72 hour

Point of comparison: `Cc1ccc(OC(=O)NC2CCC(CC3CCC(NC(=O)Oc4ccc(C)c(C)c4)CC3)CC2)cc1C` (configuration not stated), “% Inhibition” value -14%. Against it:
- CNCCc1cccc(Br)c1 — higher, -10%
- O=C(c1cc[nH]n1)N1C[C@H](c2cccc(F)c2F)[C@@H]2[C@H]1C1CCN2CC1 — higher, 0%
- O=C(Nc1ccc(Cl)cc1C(=O)c1ccccc1F)c1ccc2ncsc2c1 — higher, -2%
- CCc1ccc(CN(C)CCN2C[C@@H]3CC[C@H]2C3)nc1 — higher, -13%
- c1ccc2c(c1)CC(N1C3CCC1c1cn[nH]c1C3)C2 (configuration not stated) — higher, 2%
- CCCCN1C(=N)C(CC)(CC)C(=O)NC1=O — lower, -19%
- CC1(C)C(C(=O)NC(C#N)C2CCOC2)C1(C)C (configuration not stated) — higher, -12%
- Cc1ccnc([C@H](C2CC2)n2cc(Cn3c(=O)oc4ccccc43)nn2)c1 — higher, -3%
- Cc1nn(C(C)C)c(C)c1CN(C)C(=O)[C@H](C)N1CCCC1=O — higher, -12%
- CCOCCN1C[C@@H]2CC[C@H]1CN(Cc1ccccn1)C2 — higher, -1%
- CC(ON1CC1(C(F)(F)F)C(F)(F)F)(C(N)=O)C(N)=O (configuration not stated) — higher, -3%
- CN1C[C@H](c2ccc(F)cc2)[C@@H](C(=O)c2cccnc2)[C@]12C(=O)Nc1ccccc12 — lower, -16%
- O=C(Cc1c[nH]c2ccccc12)N1CCN(CCC2OCCO2)CC1 — higher, -10%
- Cc1nc(C(C)C)sc1C(=O)N1CCC2(CC1)OCCO2 — higher, -3%
- CCCC(=O)c1cn(Cc2nc(-c3cccnn3)no2)c2ccccc12 — higher, -2%
- CCc1ncnc(N2CCN3CCOC[C@]3(CO)C2)c1F — higher, 0%
- CN1[C@@H]2CC[C@H]1CN(CC(=O)Nc1ccc(Cl)cn1)CC2 — higher, 0%
- CCCS(=O)(=O)N1CC[C@@]2(C1)C(=O)Nc1ccc(OC)cc12 — higher, -13%
- Cc1cc(C)c(CNc2nc3ccccc3o2)c(=O)[nH]1 — higher, -1%
- CC(Cc1ccsc1)NCC(C)(O)c1cccs1 (configuration not stated) — higher, -11%
- C=CCN(C)C[C@H]1CN2CC[C@H]1C[C@@H]2CNC(=O)Nc1ccc(OC(F)(F)F)cc1 — higher, 57%
- CC(C)(C)C(=O)Nc1ccncc1C(=O)N1CCN2CCC1C2 (configuration not stated) — higher, -9%
- CC1CN(C)C(C)C2c3ccccc3NC12 (configuration not stated) — higher, -9%
- Cn1c(-c2ccc(Cl)cc2)c(-c2c(O)n(C)c(=O)n(C)c2=O)n(C)c1=O — higher, 3%
- CC1(C)COC2(CCN(C(=O)C3CC3C3CCC3)CC2)OC1 (configuration not stated) — higher, 1%
- CCCCn1nc(C)c(C(=O)N[C@@H](C)c2ccc3c(c2)OCCCO3)c1Cl — higher, -8%
- CC1CC1C(=O)N1CCOC(CS(=O)(=O)F)C1 (configuration not stated) — higher, -12%
- CCCS(=O)(=O)CC(=O)Nc1ccc(C#N)c(C(F)(F)F)c1 — higher, -3%
- c1ccc2c(CCNCC3CCCCC3)c[nH]c2c1 — the same, -14%
- O=C(CN1CCOCC1)c1ccc(C2CCCC2)cc1 — higher, 3%
- Cc1nc(CN2CC3CCCC3C2)sc1C (configuration not stated) — lower, -18%
- CCc1nn(CC(=O)N2CCC3(CC2)OCCO3)c(=O)c2cc3ccccc3n12 — higher, -10%
- O=c1[nH]ccc2ccc(-c3cccc4c3CCNC4)cc12 — higher, 0%
- COc1ccc(CN2C[C@@H]3C[C@H](C2)c2ccc(-c4cncnc4)c(=O)n2C3)cc1 — higher, -4%
- C=CCCC(CN1C[C@H]2CC=CC[C@H]2C1)Oc1ncc(F)cn1 (some centres not stated) — higher, 75%
- Cn1nccc1C1=CC2CCC(C1)N2CC(=O)Nc1nccs1 (configuration not stated) — higher, -13%
- CN1CCN(C(=O)COc2ccc3nncn3n2)C[C@H]1c1ccccc1 — higher, -5%
- N#Cc1c(O)nc(O)c2c1CCN(Cc1ccccc1)C2 — higher, 0%
- Cc1cc(CC(=O)N2CCCN(Cc3ccc(Cl)cc3)CC2)n[nH]1 — higher, -9%
- CCN(CC)c1ccc2nc(NC(=O)c3ccn(C4CCOCC4)n3)sc2c1 — higher, -2%
- COc1ccc(CN(C)C)c(OC(=O)N(C)C)c1 — higher, 2%
- O=C1c2ccccc2CCC12CCNCC2 — higher, -12%
- CN(Cc1cccnc1)C1CN(C(=O)Cc2cccnc2)C1 — higher, -6%

Point of comparison: `CC1CN(C)C(C)C2c3ccccc3NC12` (configuration not stated), Z score 1.33. Against it:
- CNCCc1cccc(Br)c1 — higher, 1.55
- O=C(c1cc[nH]n1)N1C[C@H](c2cccc(F)c2F)[C@@H]2[C@H]1C1CCN2CC1 — lower, -0.08
- O=C(Nc1ccc(Cl)cc1C(=O)c1ccccc1F)c1ccc2ncsc2c1 — lower, 0.28
- CCc1ccc(CN(C)CCN2C[C@@H]3CC[C@H]2C3)nc1 — higher, 2.18
- c1ccc2c(c1)CC(N1C3CCC1c1cn[nH]c1C3)C2 (configuration not stated) — lower, -0.27
- CCCCN1C(=N)C(CC)(CC)C(=O)NC1=O — higher, 2.64
- CC1(C)C(C(=O)NC(C#N)C2CCOC2)C1(C)C (configuration not stated) — lower, 1.21
- Cc1ccnc([C@H](C2CC2)n2cc(Cn3c(=O)oc4ccccc43)nn2)c1 — lower, 0.37
- Cc1nn(C(C)C)c(C)c1CN(C)C(=O)[C@H](C)N1CCCC1=O — lower, 1.27
- CCOCCN1C[C@@H]2CC[C@H]1CN(Cc1ccccn1)C2 — lower, 0.17
- CC(ON1CC1(C(F)(F)F)C(F)(F)F)(C(N)=O)C(N)=O (configuration not stated) — lower, 0.52
- CN1C[C@H](c2ccc(F)cc2)[C@@H](C(=O)c2cccnc2)[C@]12C(=O)Nc1ccccc12 — higher, 2.05
- O=C(Cc1c[nH]c2ccccc12)N1CCN(CCC2OCCO2)CC1 — lower, 1.24
- Cc1nc(C(C)C)sc1C(=O)N1CCC2(CC1)OCCO2 — lower, 0.39
- CCCC(=O)c1cn(Cc2nc(-c3cccnn3)no2)c2ccccc12 — lower, 0.47
- CCc1ncnc(N2CCN3CCOC[C@]3(CO)C2)c1F — lower, 0.01
- CN1[C@@H]2CC[C@H]1CN(CC(=O)Nc1ccc(Cl)cn1)CC2 — lower, -0.03
- CCCS(=O)(=O)N1CC[C@@]2(C1)C(=O)Nc1ccc(OC)cc12 — higher, 1.66
- Cc1cc(C)c(CNc2nc3ccccc3o2)c(=O)[nH]1 — lower, 0.18
- CC(Cc1ccsc1)NCC(C)(O)c1cccs1 (configuration not stated) — higher, 1.47
- C=CCN(C)C[C@H]1CN2CC[C@H]1C[C@@H]2CNC(=O)Nc1ccc(OC(F)(F)F)cc1 — lower, -4.08
- CC(C)(C)C(=O)Nc1ccncc1C(=O)N1CCN2CCC1C2 (configuration not stated) — lower, 1.22
- Cn1c(-c2ccc(Cl)cc2)c(-c2c(O)n(C)c(=O)n(C)c2=O)n(C)c1=O — lower, -0.45
- CC1(C)COC2(CCN(C(=O)C3CC3C3CCC3)CC2)OC1 (configuration not stated) — lower, -0.07
- CCCCn1nc(C)c(C(=O)N[C@@H](C)c2ccc3c(c2)OCCCO3)c1Cl — higher, 1.37
- CC1CC1C(=O)N1CCOC(CS(=O)(=O)F)C1 (configuration not stated) — higher, 1.9
- CCCS(=O)(=O)CC(=O)Nc1ccc(C#N)c(C(F)(F)F)c1 — lower, 0.53
- c1ccc2c(CCNCC3CCCCC3)c[nH]c2c1 — higher, 1.99
- O=C(CN1CCOCC1)c1ccc(C2CCCC2)cc1 — lower, -0.43
- Cc1nc(CN2CC3CCCC3C2)sc1C (configuration not stated) — higher, 2.59
- CCc1nn(CC(=O)N2CCC3(CC2)OCCO3)c(=O)c2cc3ccccc3n12 — lower, 1.23
- O=c1[nH]ccc2ccc(-c3cccc4c3CCNC4)cc12 — lower, -0.09
- COc1ccc(CN2C[C@@H]3C[C@H](C2)c2ccc(-c4cncnc4)c(=O)n2C3)cc1 — lower, 0.67
- C=CCCC(CN1C[C@H]2CC=CC[C@H]2C1)Oc1ncc(F)cn1 (some centres not stated) — lower, -13.95
- Cn1nccc1C1=CC2CCC(C1)N2CC(=O)Nc1nccs1 (configuration not stated) — higher, 1.68
- CN1CCN(C(=O)COc2ccc3nncn3n2)C[C@H]1c1ccccc1 — lower, 0.58
- Cc1cc(CC(=O)N2CCCN(Cc3ccc(Cl)cc3)CC2)n[nH]1 — lower, 0.9
- Cc1ccc(OC(=O)NC2CCC(CC3CCC(NC(=O)Oc4ccc(C)c(C)c4)CC3)CC2)cc1C (configuration not stated) — higher, 1.45
- CCN(CC)c1ccc2nc(NC(=O)c3ccn(C4CCOCC4)n3)sc2c1 — lower, 0.23
- COc1ccc(CN(C)C)c(OC(=O)N(C)C)c1 — lower, -0.2
- O=C1c2ccccc2CCC12CCNCC2 — higher, 1.53
- CN(Cc1cccnc1)C1CN(C(=O)Cc2cccnc2)C1 — lower, 1.2
